{"source": "patent US7271245B2", "about": "“Methods and compositions for inhibition of metastasis” (The Scripps Research Institute, priority 2004, dated 2007)", "molecules": {"B1": {"name": "Bc-15: patient derived human scFv antibody against activated αvβ3 with RGD motif in CDR-H3; cDNA ATCC PTA-6304 (protein)", "scFv": "MAQVQLVQSGAEVKEPGSSVKVSCKASGGTFSSYAIYWVRQAPGQGLEWMGWINPDSGDTNSAQQFQGRVTMTRDTSISTAYMELSRLRSDDTAMYYCARPPRGDGPDYWGQGTLVTVSSGGGGGS[letters of about 100 residues not shown]RGLGGLVDYKDDDDK"}, "B2": {"name": "Mut-15: RGE containing mutant version of scFv Bc-15 (protein)", "chain": "MAQVQLVQSGAEVKEPGSSVKVSCKASGGTFSSYAIYWVRQAPGQGLEWMGWINPDSGDTNSAQQFQGRVTMTRDTSISTAYMELSRLRSDDTAMYYCARPPRGEGPDYWGQGTLVTVSSGGGGGS[letters of about 100 residues not shown]RGLGGLVDYKDDDDK"}}, "target": "T1, activated integrin αvβ3 (Homo sapiens, UniProt P05106+P06756)", "T1 construct": "endogenous in cells; host or cells: MDA-MB 435 variants (Parent Combo, Bone, Lung) and patient blood-derived BMS cells; also β3-negative cells re-transfected with β3WT or β3D723R cDNA", "T1 sequence (P06756 31-889 limits assumed)": "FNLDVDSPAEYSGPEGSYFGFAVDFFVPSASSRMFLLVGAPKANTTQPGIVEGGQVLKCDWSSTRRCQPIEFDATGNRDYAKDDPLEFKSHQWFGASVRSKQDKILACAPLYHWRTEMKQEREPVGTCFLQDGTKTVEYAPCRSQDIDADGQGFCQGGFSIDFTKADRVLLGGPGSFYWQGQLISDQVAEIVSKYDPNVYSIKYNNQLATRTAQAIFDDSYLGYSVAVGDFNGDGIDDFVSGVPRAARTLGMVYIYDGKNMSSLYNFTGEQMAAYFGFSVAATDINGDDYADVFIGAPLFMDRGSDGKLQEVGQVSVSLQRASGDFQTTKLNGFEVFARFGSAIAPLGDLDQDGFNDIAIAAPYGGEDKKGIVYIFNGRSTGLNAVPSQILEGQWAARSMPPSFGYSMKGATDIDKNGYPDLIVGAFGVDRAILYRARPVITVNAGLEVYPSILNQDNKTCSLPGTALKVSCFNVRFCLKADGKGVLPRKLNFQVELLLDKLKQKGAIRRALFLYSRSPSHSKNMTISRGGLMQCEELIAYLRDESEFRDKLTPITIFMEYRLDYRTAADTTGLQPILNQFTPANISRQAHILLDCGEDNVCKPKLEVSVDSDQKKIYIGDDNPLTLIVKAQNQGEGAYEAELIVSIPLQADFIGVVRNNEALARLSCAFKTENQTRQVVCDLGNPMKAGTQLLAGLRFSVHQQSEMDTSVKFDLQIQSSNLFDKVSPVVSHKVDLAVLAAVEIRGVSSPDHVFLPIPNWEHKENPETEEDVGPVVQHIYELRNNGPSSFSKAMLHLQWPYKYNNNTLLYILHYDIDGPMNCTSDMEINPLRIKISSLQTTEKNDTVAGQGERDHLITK", "T1 sequence (P06756 891-1048 limits assumed)": "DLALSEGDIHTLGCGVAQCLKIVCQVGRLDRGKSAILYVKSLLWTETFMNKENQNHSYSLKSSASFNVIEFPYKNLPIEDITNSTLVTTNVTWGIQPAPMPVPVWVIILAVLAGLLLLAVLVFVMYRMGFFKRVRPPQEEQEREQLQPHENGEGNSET", "T1 sequence (P05106 27-788)": "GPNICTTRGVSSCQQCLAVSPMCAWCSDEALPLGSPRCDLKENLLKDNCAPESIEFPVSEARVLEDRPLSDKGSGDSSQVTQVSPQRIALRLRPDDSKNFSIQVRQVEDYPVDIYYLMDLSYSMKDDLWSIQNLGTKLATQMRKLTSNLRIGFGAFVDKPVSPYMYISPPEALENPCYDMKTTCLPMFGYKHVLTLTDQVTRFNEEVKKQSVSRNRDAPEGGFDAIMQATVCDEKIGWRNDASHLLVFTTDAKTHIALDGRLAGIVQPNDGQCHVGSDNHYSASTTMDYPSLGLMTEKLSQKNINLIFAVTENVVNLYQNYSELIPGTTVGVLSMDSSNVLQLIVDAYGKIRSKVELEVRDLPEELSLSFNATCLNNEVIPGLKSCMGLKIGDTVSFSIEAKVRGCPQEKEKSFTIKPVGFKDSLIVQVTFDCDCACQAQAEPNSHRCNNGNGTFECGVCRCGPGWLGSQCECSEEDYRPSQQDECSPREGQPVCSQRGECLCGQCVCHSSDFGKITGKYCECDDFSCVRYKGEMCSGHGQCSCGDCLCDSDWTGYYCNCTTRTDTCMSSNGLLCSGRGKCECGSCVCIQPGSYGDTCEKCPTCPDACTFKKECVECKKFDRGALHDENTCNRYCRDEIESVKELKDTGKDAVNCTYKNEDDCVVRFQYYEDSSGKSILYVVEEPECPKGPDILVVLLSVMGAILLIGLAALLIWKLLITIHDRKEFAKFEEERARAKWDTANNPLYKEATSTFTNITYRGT", "assay": "Flow cytometry, scFv binding to MDA-MB 435 variants and patient metastatic breast cancer cells", "procedure": "FIGS. 1A, 1B, 1C. Patient derived scFvs Bc-12 and Bc-15 recognize tumor cell integrin αvβ3 in a cation and activation dependent manner. Flow cytometric analyses in TBS with or without 1 mM Ca^2+, 1 mM Mg^2+, or 0.2 mM Mn^2+ as indicated. Binding of soluble scFv detected after incubation with anti-Flag M2 murine mAb followed by FITC-anti mouse F(ab′)2. (A) scFv binding to human melanoma cells (M21: αvβ3 plus other αv integrins) (M21-LIIb: αIIbβ3, no αv integrins) or lung adenocarcinoma cells (UCLA-P3: αv integrins, no β3 integrin). (B) scFv binding to M21 melanoma cells. (C) scFv binding to variants of MDA-MB 435 human breast cancer cells that lack (β^3−) or express αvβ3 either in a non-activated (β3WT, ParentCo) or activated form (β3D723R, Bone, Lung, and BMS metastatic cancer cells isolated from breast cancer patient blood).\nFIGS. 2A, 2B, 2C, 2D. Translation of scFv DNA sequence analyses. (A) Consensus amino acid sequence (SEQ ID NO: 9) of Bc-12 (SEQ ID NO: 7) and Bc-15 (SEQ ID NO: 8) (specific for activated αvβ3) compared to Bc-20 (specific for αv) (SEQ ID NO: 10). (B) scFv binding to BMS human breast cancer cells by flow cytometry, indicating loss of Bc-12 and Bc-15 binding when CDR-H3 RGD is mutated to RGE (Mut-12 and Mut-15). […] (C) cDNA sequences for scFv Bc-12 (SEQ ID NO: 1) and scFv Bc-15 (SEQ ID NO: 3). The cDNA encoding scFv Bc-12 has an ATCC accession number PTA-6303, date of deposit: Nov. 12, 2004. The cDNA encoding scFv Bc-15 has an ATCC accession number PTA-6304, date of deposit: Nov. 12, 2004. (D) cDNA sequences for scFv Mut-12 (SEQ ID NO: 5) and scFv Mut-15 (SEQ ID NO: 6). scFv Mut-12 is the RGE containing mutant version of scFv Bc-12. scFv Mut-15 is the RGE containing mutant version of scFv Bc-15.\nFlow cytometry. scFv binding to human tumor cells was analyzed by flow cytometry, initially with cloned scFv phage and then with purified scFv protein. Per sample, 2×10^5 tumor cells were blocked with goat serum and incubated either with scFv phage (2-5×10^10) (1 h at RT) followed by mouse anti-M13 mAb (Serotec) (30 min on ice) and goat FITC-anti mouse (Pierce) (30 min on ice), or with purified scFv (1.25 to 40 μg/ml, routinely 10 to 15 μg/ml) (45 min on ice), followed by mouse anti-FLAG mAb M2 (Sigma) (30 min on ice) and goat FITC-anti mouse. Binding/washing buffer was TBS with or without divalent cations (1 mM Ca^2+, 1 mM Mg^2+, 0.2 mM Mn^2+). Alternatively, tumor cells were washed in 10 ml of plasma (prepared freshly from human blood anticoagulated with 50 nM D-Phe-D-Pro-D-arginyl chloromethyl ketone, PPACK, Felding-Habermann et al., J. Biol. Chem. 271: 5892-5900, 1996), resuspended in plasma and then incubated sequentially, without washing, with purified scFv (45 min on ice), followed by anti-FLAG M2 (30 min on ice) and FITC-anti mouse (30 min on ice). All samples were counter stained with propidium iodide (PI) and analyzed on a Becton-Dickinson FACScan, with live gate set to exclude PI positive cells.\nTo test this further, the effects of cation combinations on Bc-12 and Bc-15 binding were examined. […] Smith, Methods Cell Biol. 69: 247-259, 2002; Hughes et al., J. Biol. Chem. 271: 6571-6574, 1996. To confirm that scFv Bc-12 and Bc-15 selectively recognize αvβ3 in its activated form, binding of these antibodies to in vitro generated and in vivo selected variants of the MDA-MB 435 breast cancer cell model was tested. […] In contrast, Bc-12 and Bc-15 were able to bind an MDA-MB 435 variant expressing constitutively activated mutant αvβ3D723R, without exogenous stimulation with Mn^2+. […] Importantly, scFvs Bc-12 and Bc-15 recognized in vivo selected MDA-MB 435 variants from bone and lung metastases, as well as metastatic cells isolated from breast cancer patient blood samples (FIG. 1C). These cells express αvβ3 in a constitutively activated form. Felding-Habermann et al., Proc. Natl. Acad. Sci. U.S.A 98: 1853-1858, 2001; Rolli et al., Proc. Natl. Acad. Sci. U.S.A 100: 9482-9487, 2003.", "note": "“Also recorded” adds a separate entry of the source."}
{"molecule": "B1", "values": [{"measurement": "recognition of in vivo selected MDA-MB 435 variants from bone and lung metastases", "setting": "constitutively activated αvβ3", "result": "recognized"}, {"measurement": "recognition of metastatic cells isolated from breast cancer patient blood samples", "setting": "constitutively activated αvβ3", "result": "recognized"}, {"measurement": "binding to MDA-MB 435 Parent Combo cells", "setting": "non-activated αvβ3", "result": "same Mn^2+ dependence"}, {"measurement": "binding to β3 wild type expressing MDA-MB 435 cells", "setting": "β3WT, non-activated αvβ3, without Mn^2+", "result": "failed to bind"}, {"measurement": "binding to β3 wild type expressing MDA-MB 435 cells with Mn2+", "setting": "β3WT, with Mn^2+", "result": "recognized when activated with Mn^2+"}]}
{"molecule": "B2", "values": [{"measurement": "binding of RGE mutated scFv to human breast cancer cells", "setting": "BMS cells, compared with parent RGD scFv", "result": "abolished; also recorded: equivalent to negative control"}]}
